The results in this text go back to paper PMC9911399, “Two distinct binding modes provide the RNA-binding protein RbFox with extraordinary sequence specificity”.

Numbering of substitutions follows the chain as printed; changes in the protein carry UniProt numbers. This is one part of the list.

T1: RBFOX1 RRM RbFoxmut (Fox-RRM*) (Homo sapiens, UniProt Q9NWB1 109-208, R118D;E147R;N151S;E152T)
T1 sequence: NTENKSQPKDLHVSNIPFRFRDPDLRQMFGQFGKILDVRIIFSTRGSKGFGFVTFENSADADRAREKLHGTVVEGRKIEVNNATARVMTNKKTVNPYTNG

B1: AGUGGUG (DNA:RNA)
RNA: GGGAGACCGGAAUUCAGAUUGUCCAGUGGUGUUAAAUCCCGUCGUAGCCACCA
DNA 1: CAATCTGAATTCCGGTCTCCC
DNA 2: TGGTGGCTACGACGGGATT
B2: AUAUAUC (DNA:RNA)
RNA: B1 RNA with G26U, U27A, G28U, G29A, G31C
DNA 1: CAATCTGAATTCCGGTCTCCC
DNA 2: TGGTGGCTACGACGGGATT
B3: UCUUUGU (DNA:RNA)
RNA: B1 RNA with A25U, G26C, G28U, G29U, U30G, G31U
DNA 1: CAATCTGAATTCCGGTCTCCC
DNA 2: TGGTGGCTACGACGGGATT
B4: CCUAUAC (DNA:RNA)
RNA: B1 RNA with A25C, G26C, G28A, G29U, U30A, G31C
DNA 1: CAATCTGAATTCCGGTCTCCC
DNA 2: TGGTGGCTACGACGGGATT
B5: ACAUAAU (DNA:RNA)
RNA: B1 RNA with G26C, U27A, G28U, G29A, U30A, G31U
DNA 1: CAATCTGAATTCCGGTCTCCC
DNA 2: TGGTGGCTACGACGGGATT
B6: GUUGCAG (DNA:RNA)
RNA: B1 RNA with A25G, G26U, G29C, U30A
DNA 1: CAATCTGAATTCCGGTCTCCC
DNA 2: TGGTGGCTACGACGGGATT
B7: AUCAAGU (DNA:RNA)
RNA: B1 RNA with G26U, U27C, G28A, G29A, U30G, G31U
DNA 1: CAATCTGAATTCCGGTCTCCC
DNA 2: TGGTGGCTACGACGGGATT
B8: AUACUCG (DNA:RNA)
RNA: B1 RNA with G26U, U27A, G28C, G29U, U30C
DNA 1: CAATCTGAATTCCGGTCTCCC
DNA 2: TGGTGGCTACGACGGGATT
B9: CUUCCUU (DNA:RNA)
RNA: B1 RNA with A25C, G26U, G28C, G29C, G31U
DNA 1: CAATCTGAATTCCGGTCTCCC
DNA 2: TGGTGGCTACGACGGGATT
B10: UUAAAUC (DNA:RNA)
RNA: B1 RNA with A25U, G26U, U27A, G28A, G29A, G31C
DNA 1: CAATCTGAATTCCGGTCTCCC
DNA 2: TGGTGGCTACGACGGGATT
B11: AGUUAGA (DNA:RNA)
RNA: B1 RNA with G28U, G29A, U30G, G31A
DNA 1: CAATCTGAATTCCGGTCTCCC
DNA 2: TGGTGGCTACGACGGGATT
B12: AGCUACA (DNA:RNA)
RNA: B1 RNA with U27C, G28U, G29A, U30C, G31A
DNA 1: CAATCTGAATTCCGGTCTCCC
DNA 2: TGGTGGCTACGACGGGATT
B13: GAAUUGU (DNA:RNA)
RNA: GGGAGACCGGAAUUCAGAUUGUCCGAAUUGUUUAAAUCCCGUCGUAGCCACCA
DNA 1: CAATCTGAATTCCGGTCTCCC
DNA 2: TGGTGGCTACGACGGGATT
B14: UGAAAGU (DNA:RNA)
RNA: B13 RNA with G25U, A26G, U28A, U29A
DNA 1: CAATCTGAATTCCGGTCTCCC
DNA 2: TGGTGGCTACGACGGGATT
B15: CGAGGCC (DNA:RNA)
RNA: B1 RNA with A25C, U27A, U30C, G31C
DNA 1: CAATCTGAATTCCGGTCTCCC
DNA 2: TGGTGGCTACGACGGGATT
B16: AGAUUCU (DNA:RNA)
RNA: B13 RNA with G25A, A26G, G30C
DNA 1: CAATCTGAATTCCGGTCTCCC
DNA 2: TGGTGGCTACGACGGGATT
B17: GGCCCUU (DNA:RNA)
RNA: B1 RNA with A25G, U27C, G28C, G29C, G31U
DNA 1: CAATCTGAATTCCGGTCTCCC
DNA 2: TGGTGGCTACGACGGGATT
B18: ACUCGGA (DNA:RNA)
RNA: B1 RNA with G26C, G28C, U30G, G31A
DNA 1: CAATCTGAATTCCGGTCTCCC
DNA 2: TGGTGGCTACGACGGGATT
B19: ACUGAUC (DNA:RNA)
RNA: B1 RNA with G26C, G29A, G31C
DNA 1: CAATCTGAATTCCGGTCTCCC
DNA 2: TGGTGGCTACGACGGGATT
B20: CAGCGGA (DNA:RNA)
RNA: B13 RNA with G25C, A27G, U28C, U29G, U31A
DNA 1: CAATCTGAATTCCGGTCTCCC
DNA 2: TGGTGGCTACGACGGGATT

For the assay, the target named is T1, RBFOX1 RRM RbFoxmut (Fox-RRM*). As to the kind of experiment: EMSA; HiTS-Eq, 1 nM pool, 10 min; buffer printed only for the single-RNA assays: 10 mM Tris pH 7.5, 150 mM NaCl, 3.4 mM EDTA, 0.001% NP-40, 30 C. The following applies: tags: His6 N-terminal (pET28a); label: 5' 32P. An outline of the steps: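 These values rest on relative association constants, computed from read-count changes of each RNA species versus the control reaction and normalised to the cognate motif. Reads came from free RNA recovered by 8% native PAGE after purified RbFox RRM (wild type or mutant) at increasing concentrations was equilibrated for 10 min in 50 µL with 1 nM of a 5′-radiolabelled pool with 7 randomized nucleotides and DNA-annealed flanks.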
In the case of B1, the binding signal is 0.171 KA relative to UGCAUGU.
Under B2 stands 0.0878 KA relative to UGCAUGU; under B3, 0.155 KA relative to UGCAUGU.
With B4, the binding signal is 0.0911 KA relative to UGCAUGU.
Under B5 stands 0.0887 KA relative to UGCAUGU; under B6, 0.114 KA relative to UGCAUGU; under B7, 0.123 KA relative to UGCAUGU.
For the molecule B8, the binding signal was 0.0982 KA relative to UGCAUGU.
With B9, the binding signal was 0.052 KA relative to UGCAUGU.
In the case of B10, the binding signal was 0.0555 KA relative to UGCAUGU.
Consider B11, for which the binding signal was 0.103 KA relative to UGCAUGU.
Under B12 stands 0.0799 KA relative to UGCAUGU; under B13, 0.192 KA relative to UGCAUGU; under B14, 0.072 KA relative to UGCAUGU.
Under B15 stands 0.179 KA relative to UGCAUGU; under B16, 0.0883 KA relative to UGCAUGU; under B17, 0.0552 KA relative to UGCAUGU.
The figure for B18 is 0.0986 KA relative to UGCAUGU; for B19 it is 0.0619 KA relative to UGCAUGU.
As to B20, the binding signal was 0.0726 KA relative to UGCAUGU.
